In PubChem BioAssay AID540317 (National Center for Advancing Translational Sciences (NCATS), 2011):
In all, about 390,000 compounds went through this assay and about 2,200 (0.56%) were called active. Inconclusive results, whose numbers are uncertain, are shown with a selection of clear calls. Calls come from the whole dose curve; as a rule, active = well fitted inhibition curve with a large enough effect; inconclusive = small, poorly fitted or top-dose-only effect; inactive = no such curve, though single readings can be large or run the other way. Where the call is inconclusive, the potency comes from a doubtful curve fit.

Each compound was assayed against Chromobox protein homolog 1 (Homo sapiens) (UniProt P83916) (assay: HTS for Inhibitors of HP1-beta Chromodomain Interactions with Methylated Histone Tails). Settings: AlphaScreen HP1-beta / biotin-H3K9me3 peptide binding; series mostly up to 114 µM.
Outline: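 Compound inhibition of the preformed complex between 50 nM HP1-beta and 50 nM biotinylated H3K9me3 peptide was read by AlphaScreen. Buffer was PBS pH 7.4 with 0.01% Tween-20. Incubations ran 30 min at room temperature, with 10 ug/mL donor/acceptor beads.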
Note: nearly all actives have a fitted effect of over 70% in size.
Potency is the fitted concentration of half-maximal effect; tags give direction and shape of the fitted curve.

Sequence of UniProt P83916 (P83916 whole entry, looked up): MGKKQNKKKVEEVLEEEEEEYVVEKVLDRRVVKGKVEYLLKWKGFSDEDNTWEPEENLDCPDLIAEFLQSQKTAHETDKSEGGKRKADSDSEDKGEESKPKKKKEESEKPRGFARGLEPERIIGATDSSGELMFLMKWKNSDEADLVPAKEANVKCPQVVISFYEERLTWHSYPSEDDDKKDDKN

Row | SMILES | Potency
1 | Cc1cccc(C)c1NC(=O)C(C)c1ccc(-c2ccccc2)c(F)c1 (stereo unspecified) | inactive
2 | Cc1c(C(=O)OCC2CCCO2)[nH]c2c1C(=O)CC(c1ccco1)C2 (stereo unspecified) | inconclusive: 50.1 µM [inhibitor, partial curve, poor fit]
3 | Cc1ccccc1CNC(=O)Nc1cccs1 | inconclusive: 50.1 µM [inhibitor, partial curve]
4 | C=CCOc1ccccc1CNc1ccc2[nH]c(=O)[nH]c2c1 | inconclusive: 39.8 µM [inhibitor, partial curve]
5 | COC(=O)C1=C(C)N=c2s/c(=C/c3ccoc3)c(=O)n2C1c1ccccc1 (stereo unspecified) | inconclusive: 25.1 µM [inhibitor, single point]
6 | Cc1ccc(CN2CCC(C(=O)NCCC(C)C)CC2)o1 | inconclusive: 1.12 µM [inhibitor, full curve, poor fit]
7 | Cc1ccc(O)c(NC(=O)C2CC(c3cccc(Br)c3)=NO2)c1 (stereo unspecified) | inactive
8 | Cc1ccc(N2C(=O)/C(=C\c3ccco3)SC2=S)cc1 | inactive
9 | COc1cc(/C=C2\SC(=S)N(C(C(=O)O)c3ccccc3)C2=O)ccc1O (stereo unspecified) | inconclusive: 17.8 µM [inhibitor, partial curve, poor fit]
10 | Cc1cc(C)c(S(=O)(=O)NCC23C=CC(O2)C2C(=O)N(c4ccccc4)C(=O)C23)c(C)c1 (stereo unspecified) | inconclusive: 35.5 µM [inhibitor, partial curve, poor fit]
11 | Fc1ccccc1-c1ccc(-c2nc3ccc(Cl)cn3c2Nc2ccc(Cl)cc2)o1 | inconclusive: 11.2 µM [inhibitor, full curve]
12 | Cc1ccc(CNc2ccc(N3C(=O)CC(C)C3=O)cc2[N+](=O)[O-])cc1 (stereo unspecified) | inconclusive: 39.8 µM [inhibitor, single point]
13 | Fc1ccc(-c2nc3ccccn3c2NCc2ccc3c(c2)OCO3)cc1 | inconclusive: 50.1 µM [inhibitor, partial curve]
14 | Cc1ccc(NC(=S)NNC(=O)c2ccc(N3CCOCC3)c([N+](=O)[O-])c2)cc1Cl | inconclusive: 25.1 µM [inhibitor, full curve]
15 | Cc1ccc(O)c(N=Cc2cc(Cc3ccccc3)cc([N+](=O)[O-])c2O)c1 | inconclusive: 56.2 µM [inhibitor, partial curve, poor fit]
16 | CC(Sc1nc(-c2ccccc2)cc(C(F)(F)F)n1)C(=O)O (stereo unspecified) | inconclusive: 39.8 µM [inhibitor, single point]
17 | COc1ccc2c(c1)-c1nc(/N=C/c3cccc(OC)c3O)sc1CC2 | inconclusive: 50.1 µM [inhibitor, partial curve]
18 | CCOc1ccccc1N1CCN(Cc2ccc(OC)c(OC)c2)CC1 | inconclusive: 44.7 µM [inhibitor, partial curve]
19 | O=C(C1CCCN(Cc2ccccc2F)C1)N1CCc2ccccc2C1 (stereo unspecified) | inconclusive: 44.7 µM [inhibitor, partial curve]
20 | O=C(Cc1ccccc1)NNC(=S)Nc1ccccc1 | inactive
21 | O=S(=O)(c1ccc(-c2csc(=Nc3ccc(F)cc3)n2CCCCCCO)cc1)N1CCCC1 | inconclusive: 10 µM [inhibitor, full curve, poor fit]

Row | SMILES | Potency
22 | Clc1ccc(CN2CCSCC2)c(Cl)c1 | inconclusive: 56.2 µM [inhibitor, partial curve, poor fit]
23 | CC1CCC2(CC1)NC(=O)N(NC(=O)c1ccc(OC(C)C)cc1)C2=O (stereo unspecified) | inactive
24 | Cc1ccccc1Cn1c(=O)c2c(nc3n2CCCN3Cc2ccccc2)n(C)c1=O | inconclusive: 39.8 µM [inhibitor, partial curve, poor fit]
25 | CCc1ccc(NCc2ccc(OC)c(Cn3ccnc3)c2)cc1 | inconclusive: 50.1 µM [inhibitor, partial curve, poor fit]
26 | CN1CCN(C(c2ccc(C(F)(F)F)cc2)c2ccc3cccnc3c2O)CC1 (stereo unspecified) | inconclusive: 25.1 µM [inhibitor, partial curve]
27 | C[C@@H](C(=O)Nc1nc(-c2ccccn2)cs1)N1C(=O)C2CCCCC2C1=O (stereo partly specified) | inconclusive: 35.5 µM [inhibitor, partial curve]
28 | CCOc1ccc(S(=O)(=O)Nc2cc(Cl)ccc2O)cc1 | inconclusive: 70.8 µM [inhibitor, single point]
29 | CCC1Oc2ccc(C)cc2N(CC(=O)N2CCN(c3ccccc3OC)CC2)C1=O (stereo unspecified) | inactive
30 | CC1(C)CC(NC(=O)c2ccc(Cl)c(S(=O)(=O)N(Cc3ccccc3)c3ccccc3)c2)CC(C)(C)N1 | inconclusive: 79.4 µM [inhibitor, single point]
31 | CCOc1ccc2nc(N3CCCC(C(=O)N4CCN(CC)CC4)C3)sc2c1 (stereo unspecified) | inconclusive: 20 µM [inhibitor, partial curve, poor fit]
32 | COc1ccc(/C=C/C(=O)Nc2cc(S(=O)(=O)N3CCOCC3)ccc2N2CCCC2)cc1OC | inactive
33 | CC(NS(=O)(=O)c1ccc2c(c1)C(=O)c1cc(S(=O)(=O)NC(C)C(=O)O)ccc1-2)C(=O)O (stereo unspecified) | inconclusive: 79.4 µM [inhibitor, partial curve, poor fit]
34 | Cn1nnc(NC(=O)c2cccs2)n1 | inactive
35 | O=C(/C=C/c1ccco1)Nc1sc2c(c1C(=O)O)CCC2 | inactive
36 | COc1ccc(C(C(O)C(=O)c2c[nH]c3ccccc23)N2CCN(c3ccc(OC)cc3)CC2)cc1 (stereo unspecified) | inconclusive: 20 µM [inhibitor, partial curve, poor fit]
37 | COc1ccc(-c2sc3cc(OC)c(OC)cc3c2C#CC2(O)CCCCC2)cc1 | inactive
38 | O=C(O)c1cc(S(=O)(=O)Nc2ccc(N3CCCCC3)cc2)ccc1Cl | inactive
39 | Cn1c(=O)[nH]c(=O)c2c1nc(SCC(=O)O)n2CCc1ccccc1 | inconclusive: 31.6 µM [inhibitor, full curve]
40 | Cc1cc2c(cc1S(=O)(=O)N1CCN(c3cccc(C)c3C)CC1)OCCN2C | inconclusive: 20 µM [inhibitor, full curve]
41 | Cc1ccc(CN2CCN(/N=C/c3ccc(N(C)C)cc3)CC2)cc1 | inconclusive: 14.1 µM [inhibitor, full curve]
